The target of assay [1] is T1, calmodulin (CaM) ( (mammalian), UniProt P0DP23). Nature of the assay: composition gradient multi-angle light scattering.
For assay [2], the target named is T1, calmodulin (CaM). Nature of the assay: SEC-MALS. (In general: In gel filtration, larger molecules generally elute earlier.)
In assay [3] the target is T1, calmodulin (CaM). Nature of the assay: composition gradient multi-angle light scattering. The source holds these as a separate data set.

The term Kd denotes the free concentration of one partner at which half of the binding sites on the other are occupied at equilibrium, for simple one-to-one binding. A low value points to a tighter complex. The stoichiometry N is a count of units in the complex or per binding partner.

Read-outs that look alike come from different tables or passages of the source.

B1: SK peptide (SKp), tagless recombinant fragment […] of the small-conductance Ca2+-activated K+ channel SK2 (KCa2.2) (domain or fragment)
chain: not shown
modifications: small amount of modification (minor peaks +179 and +258 D), consistent with gluconoylation at the N terminus
As to B1, the figures for the Kd with calmodulin (CaM) [1] and with calmodulin (CaM) [3] were 600 pM and 60 pM, respectively. Moreover, in the assay with calmodulin (CaM) [2], the “stoichiometry N” value came to 1.

Source of the values: article PMC4001768 (The Journal of General Physiology, 2014).
